Measured values published in article PMC11149917, “Translational and Therapeutic Evaluation of RAS-GTP Inhibition by RMC-6236 in RAS-Driven Cancers” (Cancer Discovery, 2024).
Further values from the same series stand in other lists.

System: PRISM panel of 845 cancer cell lines
Experiment: PRISM assay
Format: cell-based, human
Experimental: The PRISM cell set comprised 845 cell lines representing more than 45 lineages (see Supplementary Table S1 for cell line information), which largely overlapped with the Cancer Cell Line Encyclopedia; https://portals.broadinstitute.org/ccle). Cell lines were grown in RPMI without phenol red and supplemented with 10% or 20% FBS for adherent and suspended lines, respectively. Parental cell lines were stably infected with a unique 24-nucleotide DNA barcode via lentiviral transduction and blasticidin selection. After selection, barcoded cell lines were expanded and subjected to quality control (Mycoplasma contamination test, an SNP test for confirming cell line identity, and barcode ID confirmation). Approved cell lines were then pooled (20–25 cell lines per pool) based on doubling time similarity and frozen in assay-ready vials.
RMC-6236 was added to 384-well plates at 8-point concentration with 3-fold dilutions in triplicate. These assay-ready plates were then seeded with the thawed cell line pools. Adherent cell pools were plated at 1,250 cells per well, whereas suspension and mixed adherent/suspension pools were plated at 2,000 cells per well. Treated cells were incubated for 5 days, and then lysed. Lysate plates were collapsed together prior to barcode amplification and detection.
Each cell line's unique barcode is located in the 3′UTR of the blasticidin-resistance gene and therefore is expressed as mRNA. Total mRNA was captured using magnetic particles that recognize polyA sequences. Captured mRNA was reverse-transcribed into cDNA and then the sequence containing the unique PRISM barcode was amplified using PCR. Finally, Luminex beads that recognize the specific barcode sequences in the cell set were hybridized to the PCR products and detected using a Luminex scanner which reports the signal as a median fluorescent intensity (MFI).
• Each detection well contained 10 control barcodes in increasing abundances as spike-in controls. For each plate, we first create a reference profile by calculating the median of the log2(MFI) values across negative control wells for each of these spiked-in barcodes. • For each well, a monotonic smooth p-spline was fitted to map the spike-in control levels to the reference profile. Next, we transform the log2(MFI) for each cell barcode using the fitted spline to allow well-to-well comparisons by correcting for amplification and detection artifacts. • Next, the separability between negative and positive control treatments was assessed. In particular, we calculated the error rate of the optimum simple threshold classifier between the control samples for each cell line and plate combination. The error rate is a measure of the overlap of the two control sets and was defined as error = (FP + FN)/n, where FP is false positives, FN is false negatives, and n is the total number of controls. A threshold was set between the distributions of positive and negative control log2(MFI) values (with everything below the threshold said to be positive and above said to be negative) such that this value is minimized. Additionally, we also calculated the dynamic range of each cell line. […] Additionally, any cell line that had less than 2 passing replicates was also omitted for the sake of reproducibility. Finally, we computed viability by normalizing with respect to the median negative control for each plate.
For every gene with nonsilent mutations in at least four cell lines, we compared the AUC values between cells with and without those mutations using a t test. This analysis was carried out for (i) the full data set; (ii) excluding cell lines with nonsilent KRAS mutations; and (iii) excluding cell lines that have either KRAS or NRAS nonsilent mutations.

## CCn1c(-c2cc(N3CCN(C)CC3)cnc2[C@H](C)OC)c2c3cc(ccc31)-c1csc(n1)C[C@H](NC(=O)[C@H]1C[C@@H]1C)C(=O)N1CCC[C@H](N1)C(=O)OCC(C)(C)C2 [RMC-6236]
Cell line NCIH1092_LUNG
  RMC-6236: RevMed PRISM: AUC: 0.5942
Cell line NCIH1355_LUNG, KRAS p.G13C
  RMC-6236: RevMed PRISM: AUC: 0.7086
Cell line NCIH1838_LUNG
  RMC-6236: RevMed PRISM: AUC: 0.7614
Cell line NCIH2004RT_SOFT_TISSUE
  RMC-6236: RevMed PRISM: AUC: 0.7903
Cell line NCIH2122_LUNG, KRAS p.G12C
  RMC-6236: RevMed PRISM: AUC: 0.5446
Cell line NCIH2126_LUNG
  RMC-6236: RevMed PRISM: AUC: 0.8436
Cell line NCO2_HAEMATOPOIETIC_AND_LYMPHOID_TISSUE
  RMC-6236: RevMed PRISM: AUC: 0.8057
Cell line NZOV9_OVARY, KRAS p.T20A
  RMC-6236: RevMed PRISM: AUC: 0.4737
Cell line OC314_OVARY
  RMC-6236: RevMed PRISM: AUC: 0.8682
Cell line OC316_OVARY
  RMC-6236: RevMed PRISM: AUC: 0.7843
Cell line OCIAML2_HAEMATOPOIETIC_AND_LYMPHOID_TISSUE
  RMC-6236: RevMed PRISM: AUC: 0.6488
Cell line OCIAML3_HAEMATOPOIETIC_AND_LYMPHOID_TISSUE, NRAS p.Q61L
  RMC-6236: RevMed PRISM: AUC: 0.3731
Cell line OCIAML5_HAEMATOPOIETIC_AND_LYMPHOID_TISSUE
  RMC-6236: RevMed PRISM: AUC: 0.5099
Cell line OCIC5X_OVARY
  RMC-6236: RevMed PRISM: AUC: 0.7352
Cell line OCILY3_HAEMATOPOIETIC_AND_LYMPHOID_TISSUE
  RMC-6236: RevMed PRISM: AUC: 0.9011
Cell line OCILY18_HAEMATOPOIETIC_AND_LYMPHOID_TISSUE
  RMC-6236: RevMed PRISM: AUC: 0.7598
Cell line OCILY19_HAEMATOPOIETIC_AND_LYMPHOID_TISSUE, NRAS p.Q61K
  RMC-6236: RevMed PRISM: AUC: 0.4103
Cell line OCIM1_HAEMATOPOIETIC_AND_LYMPHOID_TISSUE
  RMC-6236: RevMed PRISM: AUC: 0.5915
Cell line OCIP5X_OVARY
  RMC-6236: RevMed PRISM: AUC: 0.9925
Cell line OE33_OESOPHAGUS
  RMC-6236: RevMed PRISM: AUC: 0.6679
Cell line ONS76_CENTRAL_NERVOUS_SYSTEM, NRAS p.Q61R
  RMC-6236: RevMed PRISM: AUC: 0.4401
Cell line OVCAR8_OVARY, KRAS p.P121H
  RMC-6236: RevMed PRISM: AUC: 0.8663
Cell line OVISE_OVARY
  RMC-6236: RevMed PRISM: AUC: 0.9548
Cell line OVK18_OVARY, KRAS p.A59G
  RMC-6236: RevMed PRISM: AUC: 0.8365
Cell line PA1_OVARY, NRAS p.G12D
  RMC-6236: RevMed PRISM: AUC: 1
Cell line PC3_PROSTATE
  RMC-6236: RevMed PRISM: AUC: 0.9371
Cell line PECAPJ15_UPPER_AERODIGESTIVE_TRACT
  RMC-6236: RevMed PRISM: AUC: 0.7052
Cell line PECAPJ41CLONED2_UPPER_AERODIGESTIVE_TRACT
  RMC-6236: RevMed PRISM: AUC: 0.6126
Cell line PECAPJ49_UPPER_AERODIGESTIVE_TRACT
  RMC-6236: RevMed PRISM: AUC: 0.5656
Cell line PEDS005TSUSP_KIDNEY
  RMC-6236: RevMed PRISM: AUC: 0.665
Cell line PK45H_PANCREAS, KRAS p.G12D
  RMC-6236: RevMed PRISM: AUC: 0.7154
Cell line RCHACV_HAEMATOPOIETIC_AND_LYMPHOID_TISSUE, KRAS p.V14I, HRAS p.A11T
  RMC-6236: RevMed PRISM: AUC: 0.9332
Cell line RCK8_HAEMATOPOIETIC_AND_LYMPHOID_TISSUE
  RMC-6236: RevMed PRISM: AUC: 0.8295
Cell line RCM1_LARGE_INTESTINE, KRAS p.G12V
  RMC-6236: RevMed PRISM: AUC: 0.2686
Cell line RD_SOFT_TISSUE, NRAS p.Q61H
  RMC-6236: RevMed PRISM: AUC: 0.3982
Cell line RH30_SOFT_TISSUE
  RMC-6236: RevMed PRISM: AUC: 0.7963
Cell line RI1_HAEMATOPOIETIC_AND_LYMPHOID_TISSUE
  RMC-6236: RevMed PRISM: AUC: 0.8097
Cell line SCC9_UPPER_AERODIGESTIVE_TRACT, HRAS p.L133R
  RMC-6236: RevMed PRISM: AUC: 0.5395
Cell line SEM_HAEMATOPOIETIC_AND_LYMPHOID_TISSUE
  RMC-6236: RevMed PRISM: AUC: 0.9033
Cell line SF295_CENTRAL_NERVOUS_SYSTEM
  RMC-6236: RevMed PRISM: AUC: 0.8595
Cell line SH4_SKIN
  RMC-6236: RevMed PRISM: AUC: 0.9443
Cell line SIMA_AUTONOMIC_GANGLIA
  RMC-6236: RevMed PRISM: AUC: 0.7949
Cell line SISO_CERVIX, KRAS p.G12D
  RMC-6236: RevMed PRISM: AUC: 0.5418
Cell line SJSA1_BONE
  RMC-6236: RevMed PRISM: AUC: 0.6169
Cell line SKMEL2_SKIN, NRAS p.Q61R
  RMC-6236: RevMed PRISM: AUC: 0.7094
Cell line SKMEL3_SKIN
  RMC-6236: RevMed PRISM: AUC: 1
